Assay results taken from PubChem BioAssay (Tox21).
“And” between values parts separate entries of the source, which are not always exact repeats. Identical values can stand only once. Inconclusive means that the source gave no clear call. Such entries were picked first, then a sample of the others. For part of these data: Potencies beside an inconclusive call are fits to weak or partial responses and may not hold up. The source made the active and inactive calls. Unless noted, the call rests on the fitted dose curve.

Tests used:
[1] = biological target: Peroxisome proliferator-activated receptor gamma (Homo sapiens) (UniProt P37231); test: qHTS assay to identify small molecule antagonists of the peroxisome proliferator-activated receptor gamma (PPARg) signaling pathway (AID 743191); conditions: HEK293H PPARg-UAS-bla, beta-lactamase ratio, antagonist, 17 h; ratio activity, negative = inhibition: at 62.6 µM (top of the series) unless noted; further: nearly all actives have a fitted effect of over 30% in size; further: potency means the concentration at half of the fitted maximal effect; on ratio activity, negative = inhibition: on the % scale 0 is the no-effect control and ±100 the full control effect
Chain of UniProt P37231 (P37231 whole entry, looked up): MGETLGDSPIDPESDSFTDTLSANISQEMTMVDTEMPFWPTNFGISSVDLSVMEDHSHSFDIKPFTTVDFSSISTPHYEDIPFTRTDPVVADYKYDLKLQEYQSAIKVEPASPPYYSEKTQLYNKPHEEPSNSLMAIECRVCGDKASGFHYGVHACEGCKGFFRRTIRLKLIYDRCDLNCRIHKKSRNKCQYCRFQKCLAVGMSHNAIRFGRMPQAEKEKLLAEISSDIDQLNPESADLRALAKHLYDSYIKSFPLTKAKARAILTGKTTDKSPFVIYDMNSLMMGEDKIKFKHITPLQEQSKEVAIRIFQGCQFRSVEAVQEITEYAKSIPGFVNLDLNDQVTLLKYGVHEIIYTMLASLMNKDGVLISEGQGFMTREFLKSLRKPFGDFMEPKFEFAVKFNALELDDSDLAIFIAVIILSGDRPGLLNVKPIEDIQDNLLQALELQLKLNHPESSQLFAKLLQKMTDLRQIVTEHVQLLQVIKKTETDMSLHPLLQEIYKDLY
In short: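 GeneBLAzer PPARg UAS-bla HEK293H cells carrying a UAS-driven beta-lactamase reporter were plated at 3000 cells/well, preincubated 5 h at 37C, then given compound for 17 h at 37C; LiveBLAzer B/G FRET substrate was read after 1 h at room temperature.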

[2] = qHTS assay for small molecule agonists of the antioxidant response element (ARE) signaling pathway (AID 743202; active means well fitted activation curve with a large enough effect in the signal ratio in the repeat runs, not every such curve was filed as active; inconclusive means weak or mixed curves, or effect the other way; inactive means no such curve, though single readings can be large or run the other way; the % refers to the signal ratio; further: potency means the concentration at half of the fitted maximal effect; on activation: on the % scale 0 is the no-effect control and ±100 the full control effect); conditions: HepG2 ARE-bla reporter, beta-lactamase FRET, 16 h; activation: at 73.3 µM (top of the series) unless noted
In short: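 Read-out: LiveBLAzer B/G FRET substrate fluorescence after 2 h at room temperature, following 16 h compound treatment at 37 C of HepG2 cells carrying an ARE-driven beta-lactamase reporter.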

[3] = qHTS assay for small molecule agonists of the antioxidant response element (ARE) signaling pathway - cell viability counter screen (AID 743203); further: nearly all actives have a fitted effect of over 55% in size; further: potency means the concentration at half of the fitted maximal effect
In short: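 CellSensor ARE-bla HepG2 cells, 2,000 per well, rested 5 hrs at 37C/5% CO2, then exposed to compound in DMSO for 16 hrs; viability read as CellTiter-Glo luminescence after 30 min at room temperature, in the reporter wells.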

[4] = qHTS assay for small molecule activators of the heat shock response signaling pathway - cell viability counter screen (AID 743209; active means well fitted curve in the direction sought with a large enough effect in the repeat runs; inconclusive means weak or mixed curves; inactive means no such curve, though single readings can be large; an effect the other way counts as inactive or inconclusive; further: potency means the concentration at half of the fitted maximal effect; nearly all actives have a fitted effect of over 50% in size); conditions: HSE-bla HeLa viability, CellTiter-Glo luminescence, 5 h; activity change, negative = cytotoxicity: at 62.6 µM (top of the series) unless noted
In short: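 CellSensor HSE-bla HeLa cells, plated overnight at 37 C/5% CO2, were exposed to compounds in DMSO for 5 h at 37 C. Viability was then read in the same wells by CellTiter-Glo luminescence after 30 min at room temperature.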

[5] = qHTS assay to identify small molecule antagonists of the peroxisome proliferator-activated receptor delta (PPARd) signaling pathway - cell viability counter screen (AID 743213; active means well fitted curve in the direction sought with a large enough effect in the repeat runs; inconclusive means weak or mixed curves; inactive means no such curve, though single readings can be large; an effect the other way counts as inactive or inconclusive; further: potency means the concentration at half of the fitted maximal effect; nearly all actives have a fitted effect of over 50% in size); conditions: PPARd-bla HEK293H viability, CellTiter-Glo luminescence, 17 h; viability change, negative = cytotoxic: at 62 µM (top of the series) unless noted
In short: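 Luminescence from CellTiter-Glo, added after the bla read and incubated 30 min at room temperature, gives viability of HEK293H PPARd-bla cells exposed to compounds for 17 h at 37 C with 300 nM L165041.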

[6] = biological target: Peroxisome proliferator-activated receptor delta (Homo sapiens) (UniProt Q03181); test: qHTS assay to identify small molecule antagonists of the peroxisome proliferator-activated receptor delta (PPARd) signaling pathway (AID 743215; active means well fitted inhibition curve with a large enough effect in the signal ratio in the repeat runs, not every such curve was filed as active; inconclusive means weak or mixed curves, or effect the other way; inactive means no such curve, though single readings can be large or run the other way; the % refers to the signal ratio;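 further: cells stimulated with agonist L165041 at 300 nM final during compound exposure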; further: potency means the concentration at half of the fitted maximal effect); conditions: HEK293H PPARd-UAS-bla, beta-lactamase FRET ratio, antagonist, 17 h; ratio activity, negative = inhibition: at 62 µM (top of the series) unless noted
Chain of UniProt Q03181 (Q03181 whole entry, looked up): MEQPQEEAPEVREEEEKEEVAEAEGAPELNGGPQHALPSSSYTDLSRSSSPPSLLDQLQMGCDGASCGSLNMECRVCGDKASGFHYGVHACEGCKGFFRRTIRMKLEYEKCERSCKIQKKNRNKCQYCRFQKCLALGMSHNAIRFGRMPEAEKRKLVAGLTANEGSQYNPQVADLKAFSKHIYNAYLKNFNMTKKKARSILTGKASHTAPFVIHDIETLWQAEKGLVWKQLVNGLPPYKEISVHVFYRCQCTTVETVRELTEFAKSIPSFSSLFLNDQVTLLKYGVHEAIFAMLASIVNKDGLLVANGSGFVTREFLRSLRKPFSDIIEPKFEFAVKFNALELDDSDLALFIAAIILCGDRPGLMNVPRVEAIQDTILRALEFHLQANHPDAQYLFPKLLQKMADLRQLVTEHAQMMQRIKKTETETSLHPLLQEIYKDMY
In short: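 PPARd UAS-bla HEK293H cells were pre-incubated 5 h at 37 C, then given test compounds in DMSO plus agonist L165041 (300 nM final). After 17 h at 37 C, beta-lactamase FRET substrate was added; fluorescence read after 2 h at room temperature.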

[7] = biological target: Bile acid receptor (Homo sapiens) (UniProt Q96RI1); test: qHTS assay to identify small molecule antagonists of the farnesoid-X-receptor (FXR) signaling pathway (AID 743217; active means well fitted inhibition curve with a large enough effect in the signal ratio in the repeat runs, not every such curve was filed as active; inconclusive means weak or mixed curves, or effect the other way; inactive means no such curve, though single readings can be large or run the other way; the % refers to the signal ratio; further: on the % scale 0 is the no-effect control and ±100 the full control effect); conditions: HEK293T FXR-UAS-bla, beta-lactamase ratio, CDCA-stimulated, 16 h
Chain of UniProt Q96RI1 (Q96RI1 whole entry, looked up): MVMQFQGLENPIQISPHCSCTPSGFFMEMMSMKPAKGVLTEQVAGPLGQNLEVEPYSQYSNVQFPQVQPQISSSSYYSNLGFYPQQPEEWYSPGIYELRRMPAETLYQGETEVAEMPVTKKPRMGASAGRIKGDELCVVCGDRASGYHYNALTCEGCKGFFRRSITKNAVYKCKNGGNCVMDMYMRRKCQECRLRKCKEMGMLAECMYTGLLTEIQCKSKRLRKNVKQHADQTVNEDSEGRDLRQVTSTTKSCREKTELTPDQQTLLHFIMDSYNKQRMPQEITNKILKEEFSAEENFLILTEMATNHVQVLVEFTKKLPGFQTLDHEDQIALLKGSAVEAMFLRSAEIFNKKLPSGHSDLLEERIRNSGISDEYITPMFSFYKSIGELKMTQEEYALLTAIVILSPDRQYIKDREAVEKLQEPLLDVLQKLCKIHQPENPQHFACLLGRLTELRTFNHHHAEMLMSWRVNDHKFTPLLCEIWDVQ
In short: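 FXR-UAS-bla HEK 293T cells pre-incubated 5 h at 37 °C, then exposed to compounds with chenodeoxycholic acid (50 uM final) for 16 h at 37 °C. Beta-lactamase reporter read by LiveBLAzer B/G FRET substrate fluorescence after 2 h at room temperature.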

[8] = qHTS assay to identify small molecule agonists of the farnesoid-X-receptor (FXR) signaling pathway - cell viability counter screen (AID 743218; active means well fitted curve in the direction sought with a large enough effect in the repeat runs; inconclusive means weak or mixed curves; inactive means no such curve, though single readings can be large; an effect the other way counts as inactive or inconclusive; further: nearly all actives have a fitted effect of over 45% in size; further: potency means the concentration at half of the fitted maximal effect); conditions: FXR-bla HEK293T viability, CellTiter-Glo luminescence, 16 h; viability change, negative = cytotoxic: at 62.6 µM (top of the series) unless noted
In short: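 FXR-UAS-bla HEK 293T cells, plated 5 h at 37 C, were exposed to compounds for 16 h at 37 C. CellTiter-Glo was then added to the same wells as the bla readout; luminescence read after 30 min at room temperature.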

[9] = qHTS assay to identify small molecule antagonists of the farnesoid-X-receptor (FXR) signaling pathway - cell viability counter screen (AID 743221; active means well fitted cell-killing curve with a large enough effect in the repeat runs, not every such curve was filed as active; inconclusive means weak or mixed curves, or effect the other way; inactive means no such curve, though single readings can be large or run the other way; further: nearly all actives have a fitted effect of over 50% in size; further: potency means the concentration at half of the fitted maximal effect); conditions: FXR-bla HEK293T viability, CellTiter-Glo luminescence, 16 h; activity change, negative = cytotoxicity: at 62.6 µM (top of the series) unless noted
In short: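 FXR-UAS-bla HEK 293T cells were treated with test compounds plus chenodeoxycholic acid (50 uM final) for 16 h at 37 C. Cell viability in the same wells was then read as CellTiter-Glo luminescence after 30 min at room temperature.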

[10] = qHTS assay to identify small molecule agonists of the NFkB signaling pathway - cell viability counter screen (AID 1159515); further: nearly all actives have a fitted effect of over 55% in size; further: potency means the concentration at half of the fitted maximal effect
In short: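 NFkB-bla ME-180 cells, 2,000/well, were plated overnight at 37 C, 5% CO2, then exposed to compounds in DMSO for 5 hr. After the bla FRET read, CellTiter-Glo was added to the same wells; luminescence was read after 30 min at room temperature.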

[11] = qHTS assay to identify small molecule antagonists of the peroxisome proliferator-activated receptor gamma (PPARg) signaling pathway - cell viability counter screen (AID 743194; active means well fitted curve in the direction sought with a large enough effect in the repeat runs; inconclusive means weak or mixed curves; inactive means no such curve, though single readings can be large; an effect the other way counts as inactive or inconclusive; further: nearly all actives have a fitted effect of over 55% in size; further: potency means the concentration at half of the fitted maximal effect); conditions: PPARg-bla HEK293H viability, CellTiter-Glo luminescence, 17 h; Potency: co-treated with 50 nM rosiglitazone unless noted; activity change, negative = cytotoxicity: at 62.6 µM (top of the series), co-treated with 50 nM rosiglitazone unless noted
In short: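 PPARg-UAS-bla HEK293H cells were plated, rested 5 h at 37 C, then treated with compounds plus rosiglitazone (50 nM final) for 17 h at 37 C; viability was then read by CellTiter-Glo luminescence after 30 min at room temperature.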

[12] = biological target: Peroxisome proliferator-activated receptor delta (Homo sapiens) (UniProt Q03181); test: qHTS assay to identify small molecule agonists of the peroxisome proliferator-activated receptor delta (PPARd) signaling pathway (AID 743212); conditions: HEK293H PPARd-UAS-bla, beta-lactamase FRET ratio, 17 h; activation: at 62.6 µM (top of the series) unless noted; further: potency means the concentration at half of the fitted maximal effect
In short: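 GeneBLAzer PPARd UAS-bla HEK293H cells (beta-lactamase reporter under UAS control), plated and rested 5 h at 37 C, then exposed to compounds in DMSO at 37 C; LiveBLAzer B/G FRET substrate added, 2 h room temperature, fluorescence read.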

[13] = biological target: Vitamin D3 receptor (Homo sapiens) (UniProt P11473); test: qHTS assay to identify small molecule antagonists of the vitamin D receptor (VDR) signaling pathway (AID 743223; active means well fitted inhibition curve with a large enough effect in the signal ratio in the repeat runs, not every such curve was filed as active; inconclusive means weak or mixed curves, or effect the other way; inactive means no such curve, though single readings can be large or run the other way; the % refers to the signal ratio; further: on the % scale 0 is the no-effect control and ±100 the full control effect); conditions: VDR-UAS-bla HEK293T, beta-lactamase FRET ratio, 16 h; activity change, negative = inhibition: at 61 µM (top of the series) unless noted
Chain of UniProt P11473 (P11473 whole entry, looked up): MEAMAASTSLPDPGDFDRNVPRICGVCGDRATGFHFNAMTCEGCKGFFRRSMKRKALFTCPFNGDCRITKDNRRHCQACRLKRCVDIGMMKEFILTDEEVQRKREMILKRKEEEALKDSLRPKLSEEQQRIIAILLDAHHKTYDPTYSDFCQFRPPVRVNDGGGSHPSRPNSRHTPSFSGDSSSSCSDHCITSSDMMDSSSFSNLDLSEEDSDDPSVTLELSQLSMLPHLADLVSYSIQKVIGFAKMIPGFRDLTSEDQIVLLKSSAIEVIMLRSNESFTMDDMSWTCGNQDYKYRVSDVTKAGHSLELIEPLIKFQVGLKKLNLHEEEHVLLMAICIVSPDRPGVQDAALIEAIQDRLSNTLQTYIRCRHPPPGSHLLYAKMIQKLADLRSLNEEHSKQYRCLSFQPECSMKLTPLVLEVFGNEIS
In short: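 VDR-bla cells were plated, incubated 4 h at 37C, then given compound and 1alpha,25-dihydroxyvitamin D3 (3 nM final). After 16 h at 37C, LiveBLAzer B/G FRET substrate was added for 2 h at room temperature and fluorescence read.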

[14] = qHTS assay to identify small molecule agonists of the vitamin D receptor (VDR) signaling pathway - cell viability counter screen (AID 743224; active means well fitted curve in the direction sought with a large enough effect in the repeat runs; inconclusive means weak or mixed curves; inactive means no such curve, though single readings can be large; an effect the other way counts as inactive or inconclusive; further: potency means the concentration at half of the fitted maximal effect; nearly all actives have a fitted effect of over 50% in size)
In short: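 VDR-bla cells were preincubated 4 h at 37C/5% CO2, then exposed to compounds for 16 h. After the 2 h room-temperature bla FRET read, CellTiter-Glo was added to the same wells and luminescence read after 30 min.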

[15] = qHTS assay to identify small molecule antagonists of the vitamin D receptor (VDR) signaling pathway - cell viability counter screen (AID 743225; active means well fitted curve in the direction sought with a large enough effect in the repeat runs; inconclusive means weak or mixed curves; inactive means no such curve, though single readings can be large; an effect the other way counts as inactive or inconclusive); conditions: VDR-bla HEK293T viability, CellTiter-Glo luminescence, 16 h; viability change, negative = cytotoxic: at 61 µM (top of the series) unless noted
In short: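 VDR-bla HEK 293T cells, 4 h pre-incubation at 37C, then compound plus 1-alpha,25-dihydroxyvitamin D3 (3 nM final) for 16 h. After the beta-lactamase FRET read, CellTiter-Glo was added to the same wells; luminescence after 30 min at room temperature.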

[16] = qHTS assay to identify small molecule agonists of the peroxisome proliferator-activated receptor delta (PPARd) signaling pathway - cell viability counter screen (AID 743211; active means well fitted curve in the direction sought with a large enough effect in the repeat runs; inconclusive means weak or mixed curves; inactive means no such curve, though single readings can be large; an effect the other way counts as inactive or inconclusive; further: potency means the concentration at half of the fitted maximal effect; nearly all actives have a fitted effect of over 55% in size); conditions: PPARd-bla HEK293H viability, CellTiter-Glo luminescence, 17 h; activity change, negative = cytotoxicity: at 62.6 µM (top of the series) unless noted
In short: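 PPARd-bla HEK293H cells (UAS-beta-lactamase reporter) were treated with compounds for 17 h at 37 C. Viability was then read in the same wells by CellTiter-Glo luminescence after 30 min at room temperature.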

[17] = qHTS assay for small molecule activators of the heat shock response signaling pathway (AID 743210; active means well fitted activation curve with a large enough effect in the signal ratio in the repeat runs, with a control signal flat, not every such curve was filed as active; inconclusive means weak or mixed curves; the % refers to the signal ratio; further: potency means the concentration at half of the fitted maximal effect); conditions: HeLa HSE-bla reporter, beta-lactamase ratio, 5 h; activation: at 62.6 µM (top of the series)
In short: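 HSE-bla HeLa cells (beta-lactamase reporter under heat shock response elements) were exposed to compounds for 5 h at 37 C, then loaded with LiveBLAzer B/G FRET substrate for 2.5 h at room temperature before fluorescence reading.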

[18] = biological target: Bile acid receptor (Homo sapiens) (UniProt Q96RI1); test: qHTS assay to identify small molecule agonists of the farnesoid-X-receptor (FXR) signaling pathway (AID 743220; active means well fitted activation curve with a large enough effect in the signal ratio in the repeat runs, not every such curve was filed as active; inconclusive means weak or mixed curves, or effect the other way; the % refers to the signal ratio; further: potency means the concentration at half of the fitted maximal effect); conditions: HEK293T FXR-UAS-bla, beta-lactamase FRET ratio, 16 h; activation: at 62.6 µM (top of the series) unless noted
In short: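 Beta-lactamase reporter under UAS control in GeneBLAzer FXR HEK 293T cells (5000/well) measured with LiveBLAzer FRET substrate after 2 h at room temperature. Compound exposure lasted 16 h at 37C.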

[19] = activity change, negative = inhibition: at 62.6 µM (top of the series) unless noted
Tags describe the fitted curve by direction and shape or compound fluorescence and quenching.

C[C@]12CCC(=O)C=C1CC[C@@H]1[C@@H]2CC[C@]2(C)C(=O)CC[C@@H]12
inconclusive: Potency [1] 54 µM [fluorescent, single point] | ratio activity, negative = inhibition [1] 11.7% and 0.257% | Potency [2] 30.1 µM [rising, partial curve] | activation [2] 9% and 9.9% | Potency [4] 0.0211 µM [cytotoxic, full curve, poor fit] | Potency [5] 1.95 µM [cytotoxic, full curve, poor fit] | ratio activity, negative = inhibition [6] -1.49% and 1.25% and 5.04% | activity change, negative = inhibition [7, 19] -24.9% | Potency [8] 54 µM [cytotoxic, single point] and 77.6 µM [cytotoxic, partial curve, poor fit] | Potency [9] 30.4 µM [falling, partial curve, poor fit] | Potency [10] 27.1 µM [cytotoxic, full curve]
inactive: Potency [3] | activity change, negative = inhibition ([7]; at 62.6 µM (top of the series)) -19.4% and -16.8%

C#CCN1C(=O)COc2cc(F)c(N3C(=O)C4=C(CCCC4)C3=O)cc21
inconclusive: ratio activity, negative = inhibition [1] -46.6% | Potency [2] 43.3 µM [rising, partial curve] | Potency [3] 21.7 µM [rising, partial curve, poor fit]
inactive: Potency [11] | Potency [10]

N#Cc1cc(I)c(O)c(I)c1
inconclusive: Potency [1] 15.5 µM [rising, partial curve] | Potency [11] 13.8 µM [cytotoxic, full curve] | Potency [2] 21.7 µM [falling, full curve] | Potency [3] 4.33 µM [cytotoxic, full curve] | activation [12] 0.0576% | Potency [5] 1.95 µM [cytotoxic, full curve, poor fit] | Potency [8] 1.38 µM [cytotoxic, full curve, poor fit] | activity change, negative = inhibition [13] 24.7% | Potency [14] 9.77 µM [cytotoxic] | Potency [15] 3.47 µM [cytotoxic, full curve, poor fit] | Potency [10] 4.9 µM [rising, full curve]

COP(=O)(OC)O/C(=C/Cl)c1cc(Cl)c(Cl)cc1Cl
active: Potency [2] 5.75 µM
inconclusive: Potency [1] 5.17 µM [rising, full curve, poor fit] | Potency [11] 3.66 µM [cytotoxic, full curve] | Potency [16] 14.6 µM [cytotoxic, partial curve, poor fit] | Potency [6] 16.4 µM [inhibitor, full curve] | Potency [14] 23.1 µM [cytotoxic, partial curve] | Potency [15] 58.1 µM [cytotoxic, single point] | Potency [10] 58.1 µM [cytotoxic, partial curve, poor fit]
inactive: Potency [9]

Oc1cc(Cl)ccc1Cl
inconclusive: ratio activity, negative = inhibition [1] 5.02% [at 81.1 µM] | Potency [11] 0.2 µM [cytotoxic, single point] | Potency [10] 0.504 µM [cytotoxic, single point]

Cc1ccc(-c2c(Cl)nc(C#N)n2S(=O)(=O)N(C)C)cc1
inconclusive: Potency [1] 21.9 µM | Potency [11] 0.0275 µM [cytotoxic, full curve, poor fit] | activation [2] -63.4% | Potency [3] 15.3 µM [cytotoxic, full curve] | Potency [17] 10.1 µM | Potency [12] 3.09 µM [rising, full curve, poor fit] | Potency [5] 0.346 µM [cytotoxic, full curve, poor fit] | ratio activity, negative = inhibition [6] -76.9% | activity change, negative = inhibition [7, 19] 7.85% | Potency [18] 12.3 µM [activator, full curve] | activity change, negative = inhibition [13] 15.9% | Potency [14] 15.5 µM [cytotoxic, full curve] | Potency [10] 34.6 µM [rising, partial curve, poor fit]
inactive: Potency [8]

Nc1ccc(Cl)c(Cl)c1
inconclusive: Potency [1] 21.9 µM [inhibitor, partial curve, poor fit] | ratio activity, negative = inhibition [1] 2.34% [at 81.1 µM] | Potency [2] 27.3 µM [rising, full curve] | viability change, negative = cytotoxic [8] -32.8% [cytotoxic] | activity change, negative = inhibition [13] 10.7% [at 78.8 µM] | Potency [14] 6.16 µM [cytotoxic] | Potency [10] 0.141 µM [cytotoxic, full curve, poor fit]
inactive: Potency [17]
